Measured values published in PubChem BioAssay AID1508623 (National Center for Advancing Translational Sciences (NCATS), 2021).
About 450 (0.94%) of roughly 48,000 compounds were called active. About 19% were inconclusive and are not listed. Calls follow the shape of the dose curve; as a rule, active = well fitted inhibition curve with a large enough effect; inconclusive = small, poorly fitted or top-dose-only effect; inactive = no such curve, though single readings can be large or run the other way. The list shows a part of the results.

Experiment: Primary qHTS for Identification of Small Molecule Inhibitors of Huntingtin Promoter Activity; also: nearly all actives have a fitted effect of over 50% in size
Conditions: HEK293 HTT promoter firefly luciferase reporter (activity 0% = vehicle and -100% = no light), 24 h; series mostly up to 57.5 µM; activity change, negative = inhibition: at the top concentration
Procedure, shortened: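 HEK293 luciferase promoter-reporter cells (2,500/well) plated 24 h, then compounds added at up to 57.5 uM final for 24 h at 37 °C. Firefly luminescence by Dual-Glo, normalized to vehicle (0%) and zero RLU (-100%).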

Activity change, negative = inhibition, inactive:
CCCc1c(C(=O)OCC)nnc2c(-c3ccccc3)c(C)nn12 -8.09%
COc1ccc(CCN2C(=O)N(c3ccc(F)cc3)C(=O)C2CC(=O)Nc2ccccc2)cc1OC (configuration not stated) -8.81%
O=C(c1ccc(Nc2nc3ccccc3n3nnnc23)cc1)N1CCN(c2ccc(F)cc2)CC1 -8.01%
COc1cc(NC(=O)c2cc3nc(-c4ccc(C)cc4)cc(C(F)(F)F)n3n2)cc(OC)c1OC -8.77%
CCc1ccc(NC(=O)c2cc(S(=O)(=O)N3CCCCC3)c[nH]2)cc1 0.528%
COc1ccc(OCc2ccc(-c3nc(C#N)c(N4CCC(C(N)=O)CC4)o3)o2)cc1 -16.8%
Cc1ccc(CNC(=O)c2nnn(Cc3ccc(F)cc3)c2N)cc1 -12.2%
O=S(=O)(Nc1ccc(F)cc1F)c1ccc(Br)s1 -24.7%
O=C(Nc1cc(-c2nc3cc(Cl)ccc3o2)ccc1Cl)c1cccc2ccccc12 24.6%
CCn1c2c(c(=O)n3ncc(C(=O)Nc4ccc(OC(F)(F)F)cc4)c13)CN(Cc1ccc(OC)cc1)CC2 -16.7%
Cc1ccc2c(c1)cc1c(=O)n(CC(=O)NC(C)CCc3ccccc3)nc(C)n12 (configuration not stated) -2.81%
Cn1c2c(c(=O)n(C)c1=O)C(c1ccccc1[N+](=O)[O-])CC(=O)N2 (configuration not stated) -4.27%
COc1ccccc1CNc1ccc(-c2nc(-c3ccccc3C)no2)cc1[N+](=O)[O-] -6.08%
CCOc1nc(NC(=O)NS(=O)(=O)Oc2cccc(Cl)c2)nc(-c2ccccc2)n1 45.2%
CC1CCn2c(nc3cc(C(=O)NCc4ccc(F)cc4)ccc32)C1 (configuration not stated) 9.72%
CCOC(=O)c1nn2c(C(F)(F)F)cc(-c3ccc(C)cc3)nc2c1Cl 0.198%
CCCCC(=O)Nc1nnc(SCc2cc(=O)n3cc(C)ccc3n2)s1 -5.77%
Cc1ccc(CNC(=O)CSc2nc(=O)n(Cc3ccco3)c3c2CCC3)cc1 8.69%
COc1ccc(-c2c(C#N)c(SCC(=O)Nc3ccc(C)cc3)nc(C)c2C(=O)Nc2ccccc2)cc1 -14.8%
CC(C)(C)NCC(O)c1ccc(O)c(CO)c1 (configuration not stated)
COc1cccc(CNC(=O)CN2CCCN(Cc3ccccc3)S2(=O)=O)c1 -9.29%
CCOc1ccc(-n2nc3ccc(NC(=O)c4cccc(F)c4)cc3n2)cc1 -16.4%
CCOc1ccc(-c2nnc(SCC(=O)NC(C)CC)nc2-c2ccc(OCC)c(OC)c2)cc1OC (configuration not stated) -2.46%
COc1cc(C(=O)Nc2cccc(OCc3cc(=O)n4cc(C)sc4n3)c2)cc(OC)c1OC 1.46%
CC(=O)Nc1nonc1-c1nnc(SCC(=O)Nc2cccc(C)c2C)n1-c1ccccc1 -15.4%
Cc1nn(C)c(C)c1CCNC(=O)Nc1cccc(Cl)c1C 5.93%
COc1ccc(Cn2cc(C(=O)c3ccc(F)cc3)c(=O)c3cc4c(cc32)OCCO4)cc1 -29.7%
COc1ccc(-c2nc3ccccc3o2)cc1NC(=O)c1ccc(-c2ccc(Br)cc2)o1 4.2%
CCCCc1nn2c(=O)cc(COC(=O)c3ccco3)nc2s1 -4.82%
Cc1cccc(NC(=O)C2CCCN(S(=O)(=O)c3c(C)n[nH]c3C)C2)c1 (configuration not stated) -21.6%
CCC(C(=O)Nc1ccccc1)n1nc(-c2cc(C)ccc2C)ccc1=O (configuration not stated) -23.3%
CCN1C(=O)N(c2ccc(C(C)=O)cc2)S(=O)(=O)c2ccccc21 -13.4%
CSc1ccc(CCNC(=O)Cn2ncn3c(cc4ccccc43)c2=O)cc1 -0.131%
CCOc1ccc(-n2c(=O)c3c(C)c(C)sc3n(CC(=O)Nc3ccc(CC)cc3)c2=O)cc1 -16.1%
CCN(C(=O)c1cc2c(=O)n(CC)c3ccccc3c2s1)c1cccc(C(F)(F)F)c1 2.35%
Cn1nc(-c2ccc(OCC(=O)Nc3ccc(Cl)cc3)cc2)c2ccccc2c1=O -23.1%
COc1ccc(Br)cc1CNC(=O)c1cnc2sc(N3CCCCCC3)nn2c1=O -20.8%
O=C(CSc1cn(CCNC(=O)c2ccccc2F)c2ccccc12)Nc1ccc(F)cc1 -19.2%
COc1cccc(N2C(=O)CSC23C(=O)N(CC(=O)Nc2cccc(Cl)c2)c2ccccc23)c1 (configuration not stated) -25.7%
CN1CC(=O)N2C(Cc3c([nH]c4ccccc34)[C@H]2c2ccc3c(c2)OCO3)C1=O (some centres not stated) -16.3%
COc1cc(CN(C(=O)COc2ccccc2Cl)c2ccccn2)cc(OC)c1OC -27.1%
CCn1c(C)c(C)c2cc(C(=O)N3CCN(c4cccc(C)c4C)CC3)ccc21 -7.43%
CCOc1ccc(-n2c(=O)c3c4c(sc3n(CC(=O)NC(C)CC)c2=O)CCC4)cc1 (configuration not stated) 19.2%
O=S(=O)(c1ccc(Cl)cc1)c1nnn2c1nc(NCc1cccs1)c1sccc12 -26.5%
COc1ccc(CC(=O)Nc2cc(-c3nc4cccnc4s3)ccc2C)cc1 47.3%
CN(C)S(=O)(=O)N(CC(=O)NCCSCc1cccc(Cl)c1)c1ccccc1 -29.1%
CCC(=O)Nc1ccc2nc(SCc3ccccc3)sc2c1 4.87%
CCC(CC)C(=O)N1CCc2cc(OC)c(OC)cc2C1COc1ccc(C(=O)OC)cc1 (configuration not stated) -29.4%
COc1ccc(C)cc1NC(=O)CSc1nc(=O)[nH]c2c1CCCC2 -29.4%
CCOc1ccc(-n2cc(-c3ccccc3)c3c(N4CCC(C)CC4)ncnc32)cc1 -21.5%
CCOc1ccccc1NC(=O)C(=O)c1cc(C)n(-c2ccc(F)cc2)c1C 25.4%
COc1ccc(-c2nnc(Nc3ccc(OC)c(C(N)=O)c3)c3ccccc23)cc1 -16.7%
CCc1ccc2oc(-c3cccc(NC(=O)C(C)(C)Oc4ccc(Br)cc4)c3)nc2c1 10.6%
Cc1cc(C)cc(Nc2ncnc3onc(-c4ccc(F)cc4)c23)c1 -17.4%
Cc1ccc(Nc2c(-c3ccc(C)cc3)nc3ccc(C)cn23)cc1 38.8%
O=C(c1ccc2c(c1)CCCC2)N1CCN(c2nc3ccc(F)cc3s2)CC1 -12.6%
CCOc1ccc(CNC(=O)c2cc3c(s2)-c2ccccc2OC3)cc1 -11.4%
COc1cc(NC(=O)NC(C)c2c(-n3cccc3)sc3c2CCN(C)C3)cc(OC)c1 (configuration not stated) -16.8%
COc1cccc(-n2c(SCC(=O)N3CCCc4ccccc43)nc3c([nH]c4ccccc43)c2=O)c1 -22.1%
CCc1ccc(S(=O)(=O)NCc2nc3cccnc3n2Cc2ccccc2Cl)cc1 -13.4%
COc1ccc(Cl)cc1NC(=O)Cn1c(=O)n(CCCC(=O)NCCc2ccc(OC)c(OC)c2)c(=O)c2ccccc21 -17.8%
O=C(CCSCc1cccc(F)c1)NCc1ccccc1 -5.21%
CCN1CCN(c2c(S(=O)(=O)c3ccc(Cl)cc3)cnc3ccccc23)CC1 -16.7%
Cc1ccc(NC(=O)Cn2c(=O)n(CCCS(=O)(=O)C3CCCCC3)c(=O)c3ccccc32)cc1F -13.5%
COc1ccc(C(=O)c2oc3ccccc3c2NC(=O)COc2ccc(C)cc2)cc1 -3.71%
COc1ccc(S(=O)(=O)c2cc3cc(OC)ccc3oc2=O)cc1 -3.65%
CCc1ccccc1NC(=O)N1CCc2cc(OC)c(OC)cc2C1CC(=O)OC (configuration not stated) -20.5%
Cn1c(=O)c2c(-c3ccccc3Cl)n(Cc3ccc(Cl)cc3)cc2n(C)c1=O 0.0314%
Cc1cccc(N2CCN(C(=O)CCC(=O)NNc3nc4ccccc4c4nc(C)nn34)CC2C)c1 (configuration not stated) -17.1%
COc1cc(C2c3c(-c4c(C)cc(C)cc4O)n[nH]c3C(=O)N2CCCOC(C)C)cc(OC)c1OC (configuration not stated) -19.1%
CCN1CCN(c2cc(-c3ccc(F)cc3)c3c(n2)CCCCCC3)CC1 4.67% [at 25.2 µM]
CCc1ccccc1NC(=O)CN1C(=O)COc2ccc(S(=O)(=O)Nc3ccccc3)cc21 -11.5%
C#CCN(C)CC1=Cc2ccccc2Oc2ccccc21 -12%
Cc1ccc(N2CC(c3nnc(Cc4ccccc4Cl)o3)CC2=O)cc1 (configuration not stated) -16.7%
COc1ccccc1Cc1nc2ccccc2nc1SCC(=O)Nc1ccccc1C(F)(F)F -7.25%
COc1ccc(-c2nc3c(C#N)c[nH]n3c2NC2CCCC2)cc1 5.89%
COc1ccc(S(=O)(=O)n2nc(-c3ccco3)nc2NCc2ccc(OC)c(OC)c2)cc1 -16.1%
COc1ccccc1N1CCN(c2cc(C)nc3c(-c4ccc(Cl)cc4)c(C)nn23)CC1 -22.8%
CN(C)c1ccc(CNC(=O)CCn2c(=O)c3cccn3c3ccc(F)cc32)cc1 2.02%
COCCOC(=O)C1=C(C)N=C2SCCC(=O)N2C1c1ccc(OCc2ccccc2)c(OC)c1 (configuration not stated) -7.16%
COCCNC(=O)CCSc1nc(-c2ccc3c(c2)OCO3)cc(C(F)(F)F)n1 -21.7%
CCc1nnc2c(NCc3cccc(OC)c3)nc3ccccc3n12 -6.07%
CCOc1ccccc1C(=O)Nc1nnc(COC)s1 -1.94%
CCN(CC)S(=O)(=O)c1ccc2c(c1)c(=O)c(C(=O)NCc1ccccc1OC)cn2C 10.7%
Cn1c(=O)c2c(ncn2C)n(C)c1=O
Cc1cn(C)c(CC(=O)N2CCN(c3ccc(F)cc3)CC2)c1C(=O)O -19.9%
O=C(NCc1ccc2c(c1)CCN2C(=O)c1ccccc1)c1ccc(Br)o1 -14.6%
CCOC(=O)c1cc(OC(=O)c2cccc(Cl)c2)n(-c2ccccc2)n1 -6.58%
CC[C@@H]1C(=O)N(C)c2cnc(Nc3ccc(C(=O)NC4CCN(C)CC4)cc3OC)nc2N1C1CCCC1 -10.6%
CCC1CN(C(=O)N2CCC(C(=O)NCc3ccco3)CC2)c2cc(C)ccc2O1 (configuration not stated) -13.6%
CC(C)c1nc2ccc(C(=O)NCCCN3CCN(c4ccc(F)cc4)CC3)cc2o1 4.37%
COc1cccc(-n2c(-c3ccc(C)cc3)cc3c2CC(C)(C)CC3=O)c1 -13.2%
Cc1cc(C)c2c(CC(=O)Nc3c(C(=O)c4ccc(F)cc4)oc4ccccc34)coc2c1 6.6%
Cc1ccc2c(c1)CC(C)N2S(=O)(=O)c1nnc(NC(=O)CC(C)C)s1 (configuration not stated) -23.8%
COc1ccc(OC)c(NC(=O)CCc2c(C)nc3c(c(C)nn3C(C)(C)C)c2C)c1 -19.9%
Cc1c(NC(=O)c2ccc(Cl)cc2)cc(C(C)C)c(O)c1S(=O)(=O)c1ccccc1 -8.45%
COc1ccccc1C(=O)Nc1ccc(OCc2cc(=O)n3cccc(C)c3n2)cc1 -6.12%
